Source: PMC4336329 (PLoS ONE, 2015)
About 2,200 (0.71%) of roughly 310,000 compounds showed an effect of 50% or more. The effect is printed as a negative number. Some of the results follow.

Molecular target: human ether-à-go-go-related gene (hERG) potassium channel (human, UniProt Q12809)
Assay: primary screen, population patch clamp on CHO cells stably expressing hERG

Sequence of human ether-à-go-go-related gene (hERG) potassium channel (Q12809 whole entry, looked up): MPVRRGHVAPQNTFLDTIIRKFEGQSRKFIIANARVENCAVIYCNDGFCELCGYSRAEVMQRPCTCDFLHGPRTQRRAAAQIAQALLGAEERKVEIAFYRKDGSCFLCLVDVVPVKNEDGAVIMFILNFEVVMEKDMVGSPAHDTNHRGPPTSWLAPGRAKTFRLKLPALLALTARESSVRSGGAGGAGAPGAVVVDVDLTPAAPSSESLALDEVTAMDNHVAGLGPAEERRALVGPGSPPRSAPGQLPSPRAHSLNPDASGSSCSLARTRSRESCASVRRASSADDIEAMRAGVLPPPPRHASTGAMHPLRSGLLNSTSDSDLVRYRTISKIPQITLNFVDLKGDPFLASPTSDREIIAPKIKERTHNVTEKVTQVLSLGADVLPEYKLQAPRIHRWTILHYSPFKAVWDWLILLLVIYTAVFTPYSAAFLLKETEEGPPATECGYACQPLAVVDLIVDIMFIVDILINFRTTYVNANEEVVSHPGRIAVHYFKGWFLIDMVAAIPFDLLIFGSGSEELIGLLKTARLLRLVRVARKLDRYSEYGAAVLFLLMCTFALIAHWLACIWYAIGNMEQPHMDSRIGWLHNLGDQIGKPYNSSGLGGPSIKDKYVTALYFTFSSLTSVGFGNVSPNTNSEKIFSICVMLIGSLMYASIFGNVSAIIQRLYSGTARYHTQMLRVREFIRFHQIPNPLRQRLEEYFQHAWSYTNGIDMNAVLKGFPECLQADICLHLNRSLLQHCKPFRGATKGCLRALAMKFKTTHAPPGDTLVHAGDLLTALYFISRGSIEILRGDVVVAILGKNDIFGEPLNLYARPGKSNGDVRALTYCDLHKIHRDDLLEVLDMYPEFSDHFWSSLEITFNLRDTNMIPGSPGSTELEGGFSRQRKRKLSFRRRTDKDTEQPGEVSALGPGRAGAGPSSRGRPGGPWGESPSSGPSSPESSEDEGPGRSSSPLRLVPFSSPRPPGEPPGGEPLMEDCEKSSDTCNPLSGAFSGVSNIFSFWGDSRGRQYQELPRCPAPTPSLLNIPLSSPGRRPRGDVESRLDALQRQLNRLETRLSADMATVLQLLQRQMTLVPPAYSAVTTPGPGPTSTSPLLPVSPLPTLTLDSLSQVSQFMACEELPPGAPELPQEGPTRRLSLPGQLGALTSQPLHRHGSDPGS

| SMILES | hERG current change (%, negative = inhibition) at 1uM [%] |
| --- | --- |
| CC(=O)NCC(=O)OCc1ccc([N+](=O)[O-])cc1 | 13.5 |
| COc1ccc(Cn2cc(F)c(=O)n(CCC(C)C)c2=O)cc1[N+](=O)[O-] | -0.406 |
| COc1ccc(OCc2cc(C(=O)NCC3CCCCO3)no2)c(Cl)c1 (stereo not drawn) | 8.67 |
| CCOC(=O)/C(C#N)=C/c1cn(CCC(=O)O)nc1-c1cccc(Br)c1 | 9.36 |
| CC1(c2ccc(OC(F)F)cc2)NC(=O)N(CC(=O)N2c3ccccc3NC(=O)C2(C)C)C1=O (stereo not drawn) | -4.03 |
| COC(=O)c1cc(-c2ccc(Cl)cc2Cl)n[nH]1 | 13.5 |
| CCC(CC)=C(C#N)C(=O)NC1CCCCC1 | -2.89 |
| CCOc1ccc(S(=O)(=O)Nc2c(C)n(C)n(-c3ccccc3)c2=O)cc1 | 15.3 |
| COc1ccc(-c2n[nH]c(=S)n2N)c(OC)c1 | 7.65 |
| Cc1cccc(NC(=O)Cn2nnc(C(=O)NCc3ccco3)c2N)c1 | 6.8 |
| N#Cc1c(-c2ccc(F)cc2)cc(-c2cccs2)nc1SCC(=O)O | 16.2 |
| CCN(CC)C(=O)CSc1nc2cc3c(cc2c(=O)n1Cc1ccco1)OCO3 | -6.72 |
| COC(=O)c1ccc2c(=O)n(CCCCCC(=O)N3CCN(c4ccc(F)cc4)CC3)c(=O)[nH]c2c1 | 12.9 |
| CN1CCN(C(=O)c2cc([N+](=O)[O-])ccc2Cl)CC1 | 14.4 |
| Cc1cc(C)c(/C=N/NC(N)=O)c(C)c1/C=N/NC(N)=O | -1.47 |
| COc1ccc2c(c1)OC[C@H]1[C@H]2N2C(=O)CN(CC3CCCO3)C(=O)[C@@]2(C)[C@H]1c1ccccc1 (stereo partly drawn) | 13.3 |
| CCOCc1c(C(=O)OCC(=O)Nc2ccc(C)c(S(=O)(=O)N(C)C)c2)oc2ccccc12 | 14.7 |
| CCOc1ncccc1C(=O)N(C)CC(=O)Nc1ccccc1SC | 31.7 |
| OCCNc1nc2ccccc2[nH]1 | 12.9 |
| O=C(O)CNC(=O)C1COc2ccccc2O1 (stereo not drawn) | 16 |
| O=[N+]([O-])c1ccc(C[n+]2ccccc2)cc1.[Br-] | -1.48 |
| ClCc1csc(N/N=C/c2cccs2)n1 | 4.58 |
| O=C(COC(=O)c1ccc(F)cc1F)NCCNC(=O)COC(=O)c1ccc(F)cc1F | 14.3 |

| SMILES | hERG current change (%, negative = inhibition) at 1uM [%] |
| --- | --- |
| Cc1[nH]n(-c2ccccc2)c(=O)c1C(c1ccc(O)c([N+](=O)[O-])c1)c1c(C)[nH]n(-c2ccccc2)c1=O | 10.3 |
| CCN(c1ccccc1)S(=O)(=O)c1nnc(NC(=O)C(C)C)s1 | 14.1 |
| O=C(O)c1cccc(NC(=O)c2ccccc2NC(=O)c2cccc([N+](=O)[O-])c2)c1 | 19.1 |
| Cc1ccn2cc(-c3ccc(NS(=O)(=O)c4ccccc4)cc3)nc2c1 | 9.5 |
| COc1ccc(NCc2ccc(OC)c(Cn3ccnc3)c2)c(OC)c1 | 6.29 |
| Nc1cc[n+](CC(=O)c2ccc3c(c2)OCCO3)cc1.[Br-] | 4.12 |
| COc1cc2c(cc1NC(=O)COC(=O)C(CCSC)NC(=O)c1ccccc1Cl)oc1ccccc12 (stereo not drawn) | 9.35 |
| Cc1cccc(S(=O)Cc2ccc(C(=O)N3CCOCC3)o2)c1 (stereo not drawn) | 16 |
| CC(C)Cc1ccc(S(=O)(=O)N2CCCC2)cc1 | -2.67 |
| CCn1c(-c2cc3ccccc3cc2O)n[nH]c1=S | 10.1 |
| O=C(COc1ccccc1F)Nc1ccc(S(=O)(=O)N2CCCC2)cc1 | 12.3 |
| CC1Cc2ccccc2N1C(=O)COC(=O)c1ccc(O)cc1 (stereo not drawn) | 8.93 |
| COc1ccccc1NC(=O)Nc1ccccc1N1CCOCC1 | 6.95 |
| Cc1cccc(C(=O)NNS(=O)(=O)c2ccc(F)cc2)c1 | 2.71 |
| Cc1cccc(NC(=S)NCCc2c[nH]c3ccccc23)c1 | 6.33 |
| CCOC(=O)N1CCN(C(=S)NC(=O)c2ccc(F)cc2)CC1 | -0.287 |
| CCOC(=O)c1[nH]c(C)c(C(=O)OCC(=O)NC2CCS(=O)(=O)C2)c1C (stereo not drawn) | 13 |
| Cc1ccc(C(=O)NNC(=O)c2cc(OCC(F)(F)F)ccc2OCC(F)(F)F)cc1 | -10.2 |
| COC(=O)c1c(C)cc(OC(C)=O)c(C)c1OC(C)=O | 15.4 |
| COC(=O)c1cn(NC(=O)Cc2ccc(Cl)c(Cl)c2)c(=O)c2ccccc12 | 11.4 |
| CC(=O)c1ccc(N2CCN(C(=O)c3ccc(NC4=NC5CS(=O)(=O)CC5S4)cc3)CC2)cc1 (stereo not drawn) | -0.635 |
| COc1ccc(CNCCC(c2ccc(F)cc2)c2ccc(OC(C)C)cc2)cc1OC (stereo not drawn) | -46.8 |
